Measurements reported in the antibiotic and cytotoxicity screens of Wong et al. (2023).
The other results are listed elsewhere or left out.

What was measured:
HSkMC = human skeletal muscle cells; assay: cytotoxicity call (relative viability < 0.9); conditions: 10 µM
HepG2 = assay: cytotoxicity call (relative viability < 0.9); conditions: 10 µM
S. aureus RN4220 = assay: growth inhibition call (relative growth <= 0.2); conditions: 50 µM

Structure (SMILES)	cytotoxicity call (HSkMC)	cytotoxicity call (HepG2)	growth inhibition call (S. aureus RN4220)
CC(C)CCCC(C)NC(C)C.Cl (stereo unspecified)	inactive	inactive	inactive
C[C@@H]1CN([C@@H](C)CO)C(=O)c2cc(NS(=O)(=O)c3cccs3)ccc2O[C@@H](C)CCCCO[C@@H]1CN(C)C(=O)CCC(F)(F)F	inactive	inactive	inactive
C[C@@H]1CN([C@H](C)CO)C(=O)c2c(c3ccccc3n2C)-c2ccccc2CO[C@@H]1CN(C)C(=O)Nc1ccc(F)cc1	inactive	inactive	inactive
CC(C)NC(=O)N(C)C[C@H]1Oc2cc(-c3ccccc3F)ccc2S(=O)(=O)N([C@H](C)CO)C[C@@H]1C	inactive	inactive	inactive
C[C@H](CO)N1C[C@H](C)[C@@H](CN(C)S(=O)(=O)c2ccc(Cl)cc2)OCc2ccccc2-c2c(n(C)c3ccccc23)C1=O	inactive	inactive	inactive
C[C@H](CO)N1C[C@H](C)[C@H](CN(C)C(=O)CCN2CCCCC2)Oc2ncc(C#CCN(C)C)cc2C1=O	inactive	inactive	inactive
Cc1noc(C)c1S(=O)(=O)N(C)C[C@H]1Oc2ccc(NC(=O)Cn3cnnn3)cc2CC(=O)N([C@H](C)CO)C[C@@H]1C	inactive	inactive	inactive
C=CCOC(=O)[C@@H]1[C@H]2C(=O)O[C@H](c3ccccc3)[C@H](c3ccccc3)N2[C@H](c2ccc(OCCOC(=O)[C@H]3C[C@H]4C(=O)N[C@@H](CCCC[N+](C)(C)C)C(=O)N4[C@H]3c3ccc(O)cc3)cc2)[C@@]12C(=O)Nc1ccc(I)cc12	inactive	inactive	inactive
O=C(C[C@@H]1C[C@@H]2c3cc(NS(=O)(=O)c4ccc(F)cc4)ccc3O[C@@H]2[C@H](CO)O1)NCCc1ccccc1	inactive	inactive	inactive
C[C@@H]1CCCCO[C@H](CN(C)C(=O)c2ccncc2)[C@@H](C)CN([C@H](C)CO)C(=O)c2cc(NS(=O)(=O)c3cn(C)cn3)ccc2O1	inactive	inactive	inactive
COc1ccc(NC(=O)N(C)C[C@@H]2OCCCC[C@H](C)Oc3ccc(NS(=O)(=O)c4c(C)noc4C)cc3C(=O)N([C@@H](C)CO)C[C@@H]2C)cc1	inactive	inactive	inactive
C[C@@H]1CN([C@H](C)CO)C(=O)c2cc(NC(=O)NC3CCCCC3)ccc2O[C@@H]1CN(C)Cc1ccc(Cl)c(Cl)c1	inactive	inactive	inactive
C[C@H](CO)N1C[C@H](C)[C@H](CN(C)S(=O)(=O)c2cn(C)cn2)Oc2ccc(NC(=O)c3ccncc3)cc2CC1=O	inactive	inactive	inactive
Cc1ccc(S(=O)(=O)Nc2ccc3c(c2)C(=O)N([C@H](C)CO)C[C@H](C)[C@@H](CN(C)Cc2ccc(C(F)(F)F)cc2)OCCCC[C@H](C)O3)cc1	inactive	active	inactive
COc1c(O)cc2c(c1O)[C@@H]1O[C@H](CO)[C@@H](O)[C@H](O)[C@H]1OC2=O	inactive	inactive	inactive
Cc1noc(C)c1S(=O)(=O)Nc1ccc2c(c1)CC(=O)N([C@@H](C)CO)C[C@@H](C)[C@@H](CN(C)Cc1ccc(-c3ccccc3)cc1)O2	inactive	inactive	inactive
CCCNC(=O)N1C[C@]2(CCN(CC2)C(=O)Cc2cccnc2)c2c([nH]c3cc(ccc23)OC)[C@H]1CO	inactive	inactive	inactive
C[C@H](CO)N1C[C@H](C)[C@H](CN(C)C(=O)Nc2cccc3ccccc23)Oc2ncc(/C=C/c3ccccc3)cc2C1=O	inactive	inactive	inactive
O=C(O)Cn1nnnc1-c1ccsc1	inactive	inactive	inactive

Structure (SMILES)	cytotoxicity call (HSkMC)	cytotoxicity call (HepG2)	growth inhibition call (S. aureus RN4220)
C[C@@H]1CN([C@H](C)CO)C(=O)c2cc(NS(=O)(=O)c3ccc(F)cc3)ccc2O[C@H]1CN(C)Cc1ccc(Cl)c(Cl)c1	active	inactive	inactive
c1cnc2c(SCc3nc4ccccc4s3)cccc2c1	active	active	inactive
CC(=O)OC1CC2C(C)(C)C(O)CCC2(C)C2CCC3(C)C(c4ccoc4)OC(=O)C4OC43C12C (stereo unspecified)	inactive	inactive	inactive
C[C@H](CO)N1C[C@H](C)[C@@H](CN(C)C(=O)CN(C)C)Oc2cc(C#CCN(C)C)ccc2S1(=O)=O	inactive	inactive	inactive
C[C@@H]1CN([C@H](C)CO)C(=O)c2cc(C#CC3(O)CCCC3)cnc2O[C@@H]1CN(C)S(=O)(=O)c1ccccc1	inactive	inactive	inactive
C[C@H]1CN([C@@H](C)CO)C(=O)c2cc(C#CCN(C)C)cnc2O[C@H]1CN(C)Cc1ccc2c(c1)OCO2	inactive	inactive	inactive
CN(C)CC(=O)N[C@H]1CC[C@H](CCNS(=O)(=O)c2ccccc2)O[C@H]1CO	inactive	inactive	inactive
CO[C@H]1CN(C)C(=O)c2cc(NS(=O)(=O)CC(F)(F)F)ccc2OC[C@@H](C)N(Cc2cccnc2)C[C@H]1C	inactive	inactive	inactive
COCC#Cc1cnc2c(c1)C(=O)N([C@H](C)CO)C[C@@H](C)[C@@H](CN(C)C(=O)Nc1ccc(OC)cc1)O2	inactive	inactive	inactive
COCCCNc1ncnc(N)c1[N+](=O)[O-]	inactive	inactive	inactive
C(=N\C1CCCCCCCCCCC1)/c1ccco1	inactive	inactive	inactive
O=C(CCCCCCC(=O)Nc1ccc([C@H]2C[C@H](c3ccccc3)O[C@H](c3ccncc3)O2)cc1)NO	inactive	inactive	inactive
Nc1nc(=O)[nH]cc1Br	inactive	inactive	inactive
C[C@@H]1CN([C@H](C)CO)C(=O)c2cc(NS(=O)(=O)c3ccc(F)cc3)ccc2O[C@H]1CN(C)C(=O)Nc1cccc2ccccc12	inactive	inactive	inactive
COc1ccc(NC(=O)Nc2ccc3c(c2)C(=O)N([C@H](C)CO)C[C@H](C)[C@H](CN(C)S(=O)(=O)c2c(C)noc2C)OCCCC[C@@H](C)O3)cc1	inactive	inactive	inactive
CCOC(=O)c1n[nH]c(=S)[nH]c1=O	inactive	inactive	inactive
C[C@H]1CN([C@@H](C)CO)C(=O)CCCn2cc(nn2)CO[C@@H]1CN(C)C(=O)CCCN(C)C	inactive	inactive	inactive
COc1cccc(S(=O)(=O)Nc2ccc3c(c2)C(=O)N(C)C[C@H](OC)[C@H](C)CN(C(=O)Cc2cccnc2)[C@H](C)CO3)c1	inactive	inactive	inactive
CCCN(CCC)S(=O)(=O)c1ccc(C(=O)O)cc1	inactive	inactive	inactive

Structure (SMILES)	cytotoxicity call (HSkMC)	cytotoxicity call (HepG2)	growth inhibition call (S. aureus RN4220)
COc1ccc(NC(=O)N(C)C[C@@H]2OCCCC[C@@H](C)Oc3ccc(NC(=O)Nc4ccccc4)cc3C(=O)N([C@H](C)CO)C[C@H]2C)cc1	inactive	inactive	inactive
C[C@@H]1CN([C@@H](C)CO)C(=O)c2cc(Br)cnc2O[C@H]1CN(C)C(=O)c1ccc2c(c1)OCO2	inactive	inactive	inactive
C[C@H]1CN([C@@H](C)CO)C(=O)c2cc(C#CCN(C)C)cnc2O[C@H]1CN(C)C(=O)c1ccc2c(c1)OCO2	inactive	inactive	inactive
CNC[C@H]1OCCCC[C@H](C)Oc2ccc(NC(=O)Nc3cccc4ccccc34)cc2C(=O)N([C@H](C)CO)C[C@@H]1C	inactive	inactive	inactive
O=C(C[C@H]1CC[C@H]2[C@@H](COC[C@H](O)CN2C(=O)c2ccccc2)O1)N1CCOCC1	inactive	inactive	inactive
COc1ccc(S(=O)(=O)Nc2cccc3c2O[C@H](CN(C)S(=O)(=O)c2ccc(F)cc2)[C@H](C)CN([C@H](C)CO)C3=O)cc1	inactive	inactive	inactive
C[C@@H]1CN([C@@H](C)CO)C(=O)c2cc(NS(=O)(=O)c3cn(C)cn3)ccc2O[C@H]1CN(C)C(=O)Nc1ccc(F)cc1	inactive	inactive	inactive
O=C(Nc1ccc(F)cc1)N[C@@H]1C[C@@H]2O[C@@H](CO)CC[C@@H]2O[C@@H]1CCc1ccc(-c2ccccc2)cc1	inactive	inactive	inactive
O=C1OCCN/C1=C/C(=O)c1ccccc1	inactive	active	inactive
C[C@H]1CN([C@@H](C)CO)C(=O)Cc2cc(NC(=O)Nc3ccc(C(F)(F)F)cc3)ccc2O[C@H]1CN(C)Cc1ccc2c(c1)OCO2	active	inactive	inactive
Cc1noc(C)c1S(=O)(=O)Nc1ccc2c(c1)C(=O)N([C@@H](C)CO)C[C@@H](C)[C@H](CN(C)CC1CCCCC1)OCCCC[C@@H](C)O2	inactive	inactive	inactive
COc1ccc(S(=O)(=O)Nc2ccc3c(c2)C(=O)N([C@@H](C)CO)C[C@@H](C)[C@@H](CN(C)S(=O)(=O)c2cn(C)cn2)O3)cc1	inactive	inactive	inactive
CN1CCN(C(=O)C[C@@H]2C=C[C@@H](NS(=O)(=O)c3cccc(F)c3)[C@@H](CO)O2)CC1	inactive	inactive	inactive
COc1ccc(CN(C)C[C@@H]2OCCCC[C@@H](C)Oc3ccc(NC(=O)NC4CCCCC4)cc3C(=O)N([C@H](C)CO)C[C@@H]2C)cc1	inactive	inactive	inactive
NCc1ccc(-c2nccs2)cc1	inactive	inactive	inactive
COc1ccc(S(=O)(=O)N(C)C[C@@H]2Oc3ccc(NC(=O)NC(C)C)cc3C(=O)N([C@@H](C)CO)C[C@H]2C)cc1	inactive	inactive	inactive
Cc1noc(C)c1NC(=O)N(C)C[C@H]1Oc2c(NS(=O)(=O)c3cn(C)cn3)cccc2C(=O)N([C@@H](C)CO)C[C@H]1C	inactive	inactive	inactive
COc1ccc(S(=O)(=O)N(C)C[C@@H]2OCCCC[C@H](C)Oc3ccc(NC(=O)Nc4ccccc4)cc3C(=O)N([C@@H](C)CO)C[C@@H]2C)cc1	inactive	inactive	inactive
COCC#Cc1cnc2c(c1)C(=O)N([C@@H](C)CO)C[C@H](C)[C@@H](CN(C)C(=O)Nc1cc(F)ccc1F)O2	inactive	inactive	inactive
